Molecules are shown by their SMILES.

This series has as its system male Sprague-Dawley rats. As to the kind of experiment: Rat Tolerance/Dependence Study (28 day).

Consider `O=C1CN2c3c(cccc3[C@@H]3CN(CCCOc4ccc(F)cc4)CC[C@@H]32)N1` [Example 2, (6bR,10aS)-8-(3-(4-fluorophenoxy)propyl)-6b,7,8,9,10,10a-hexahydro-1H-pyrido[3′,4′:4,5]pyrrolo[1,2,3-de]quinoxalin-2(3H)-one], for which the tolerance result (0.3 and 3 mg/kg four times, subcutaneous dosing for 28 days) is on record as “does not produce tolerance”. For the setting “0.3 and 3 mg/kg s.c., 28 days”, the “physical dependence upon cessation of dosing” value was “not to produce a syndrome of physical dependence”.

Turning to `CN1CC[C@]23c4c5ccc(O)c4O[C@H]2[C@@H](O)C=C[C@H]3[C@H]1C5` [Morphine, morphine, reference compound], the “predominant behavioral effects during the on-dose phase” value (morphine 30 mg/kg orally twice per day) was “Straub tail, jumping, digging, increased body tone, increased locomotor activity, explosive movements and exopthalmus”. The “new behavioral and physical signs during the withdrawal phase” value (morphine 30 mg/kg orally twice per day, withdrawn Day 28) was “piloerection, ataxia/rolling gait, wet dog shakes and pinched abdomen”. Under “repeated morphine 30 mg/kg orally twice per day”, the tolerance and dependence entry is “clear signs of tolerance and dependence”.

The record behind these values is US12173004B2, “Pharmaceutical compositions comprising heterocycle fused gamma carboline prodrugs” (INTRA-CELLULAR THERAPIES, INC., priority 2017, dated 2024).
